# The list shows a part of the results.
# B1: Gal 8 (Mus musculus), Q9JL15 (protein)
# chain: MGGSHHHHHHGMASMLSLNNLQNIIYNPIIPYVGTITEQLKPGSLIVIRGHVPKDSERFQVDFQLGNSLKPRADVAFHFNPHFKRSSCIVCNTLTQEKWGWEEITYDMPFRKEKSFEIVFMVLKNKFQVAVNGRHVLLYAHRISPEQIDTVGIYGKVNIHSIGFRFSSASALPHTLGDLQSMETSALGLTQINRENIQKPGKLQLSLPFEARLNASMGPGRTVVIKGEVNTNARSFNVDLVAGKTRDIALHLNPHLNVKAFVRNSFLQDAWGEEERNITCFPFSSGMYFEMIIYCDVREFKVAINGVHSLEYKHRFKDLSSIDTLSVDGDIRLLDVRSW
# Key:
# Assay in all cases: glycan array binding signal (z-score within array); higher = stronger binding
# Conditions in all cases: glycan notation: IUPAC condensed, linker removed; mutation: R82H, R255H
# Fuc(a1-2)Gal = target: Fuc(a1-2)Gal
# Procedure, shortened: (§1)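 Negative Z-scores can be read as non-binding. The Z-score is calculated within each array and then averaged across arrays of one protein sequence at different concentrations or buffers and across linkers. Arrays, 3228 in all, were curated from the Consortium for Functional Glycomics database and kept only where the protein sequence was available.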
# Fuc(a1-2)Gal(b1-3)GalNAc = target: Fuc(a1-2)Gal(b1-3)GalNAc
# Procedure, shortened: as §1
# [1] = target: Fuc(a1-2)Gal(b1-3)GalNAc(a1-3)[Fuc(a1-2)]Gal(b1-4)Glc
# Procedure, shortened: as §1
# [2] = target: Fuc(a1-2)Gal(b1-3)GalNAc(a1-3)[Fuc(a1-2)]Gal(b1-4)GlcNAc
# Procedure, shortened: as §1
# [3] = target: Fuc(a1-2)Gal(b1-3)GalNAc(b1-3)Gal
# Procedure, shortened: as §1
# [4] = target: Fuc(a1-2)Gal(b1-3)GalNAc(b1-3)Gal(a1-4)Gal(b1-4)Glc
# Procedure, shortened: as §1
# [5] = target: Fuc(a1-2)Gal(b1-3)GalNAc(b1-4)[Neu5Ac(a2-3)]Gal(b1-4)Glc
# Procedure, shortened: as §1
# Fuc(a1-2)Gal(b1-3)GlcNAc = target: Fuc(a1-2)Gal(b1-3)GlcNAc
# Procedure, shortened: as §1
# [6] = target: Fuc(a1-2)Gal(b1-3)GlcNAc(b1-2)Man(a1-3)[Fuc(a1-2)Gal(b1-3)GlcNAc(b1-2)Man(a1-6)]Man(b1-4)GlcNAc(b1-4)GlcNAc
# Procedure, shortened: as §1
# [7] = target: Fuc(a1-2)Gal(b1-3)GlcNAc(b1-2)Man(a1-3)[Fuc(a1-2)Gal(b1-3)GlcNAc(b1-2)Man(a1-6)]Man(b1-4)GlcNAc(b1-4)[Fuc(a1-6)]GlcNAc
# Procedure, shortened: as §1
# [8] = target: Fuc(a1-2)Gal(b1-3)GlcNAc(b1-3)Gal(b1-4)Glc
# Procedure, shortened: as §1
# [9] = target: Fuc(a1-2)Gal(b1-3)GlcNAc(b1-3)GalNAc
# Procedure, shortened: as §1
# [10] = target: Fuc(a1-2)Gal(b1-3)GlcNAc(b1-3)[Fuc(a1-2)Gal(b1-3)GlcNAc(b1-6)]GalNAc
# Procedure, shortened: as §1
# [11] = target: Fuc(a1-2)Gal(b1-3)GlcNAc(b1-3)[Gal(b1-4)GlcNAc(b1-6)]Gal(b1-4)Glc
# Procedure, shortened: as §1
# [12] = target: Fuc(a1-2)Gal(b1-3)GlcNAc(b1-3)[Neu5Ac(a2-6)Gal(b1-4)GlcNAc(b1-6)]Gal(b1-4)Glc
# Procedure, shortened: as §1
# [13] = target: Fuc(a1-2)Gal(b1-3)GlcNAc6S
# Procedure, shortened: as §1
# [14] = target: Fuc(a1-2)Gal(b1-3)[Fuc(a1-4)]GlcNAc
# Procedure, shortened: as §1
# [15] = target: Fuc(a1-2)Gal(b1-3)[Fuc(a1-4)]GlcNAc(b1-2)Man(a1-3)[Fuc(a1-2)Gal(b1-3)[Fuc(a1-4)]GlcNAc(b1-2)Man(a1-3)]Man(b1-4)GlcNAc(b1-4)GlcNAc
# Procedure, shortened: as §1
# [16] = target: Fuc(a1-2)Gal(b1-3)[Fuc(a1-4)]GlcNAc(b1-2)Man(a1-3)[Fuc(a1-2)Gal(b1-3)[Fuc(a1-4)]GlcNAc(b1-2)Man(a1-6)]Man(b1-4)GlcNAc(b1-4)[Fuc(a1-6)]GlcNAc(b1-4)[Fuc(a1-6)]GlcNAc
# Procedure, shortened: as §1
# [17] = target: Fuc(a1-2)Gal(b1-3)[Fuc(a1-4)]GlcNAc(b1-3)[Fuc(a1-3)[Gal(b1-4)]GlcNAc(b1-6)]Gal(b1-4)Glc
# Procedure, shortened: as §1
# [18] = target: Fuc(a1-2)Gal(b1-3)[Fuc(a1-4)]GlcNAc(b1-3)[Gal(b1-4)GlcNAc(b1-6)]Gal(b1-4)Glc
# Procedure, shortened: as §1
# [19] = target: Fuc(a1-2)Gal(b1-4)Fuc(a1-3)]GlcNAc(b1-2)Man(a1-3)[Fuc(a1-2)Gal(b1-4)[Fuc(a1-3)]GlcNAc(b1-2)Man(a1-6)]Man(b1-4)GlcNAc(b1-4)GlcNAc
# Procedure, shortened: as §1
# Fuc(a1-2)Gal(b1-4)Glc = target: Fuc(a1-2)Gal(b1-4)Glc
# Procedure, shortened: as §1
# Fuc(a1-2)Gal(b1-4)Glc6S = target: Fuc(a1-2)Gal(b1-4)Glc6S
# Procedure, shortened: as §1
# Fuc(a1-2)Gal(b1-4)GlcNAc = target: Fuc(a1-2)Gal(b1-4)GlcNAc
# Procedure, shortened: as §1
# [20] = target: Fuc(a1-2)Gal(b1-4)GlcNAc(b1-2)Man
# Procedure, shortened: as §1
# [21] = target: Fuc(a1-2)Gal(b1-4)GlcNAc(b1-2)Man(a1-3)[Fuc(a1-2)Gal(b1-4)GlcNAc(b1-2)Man(a1-6)]Man(b1-4)GlcNAc(b1-4)GlcNAc
# Procedure, shortened: as §1
# [22] = target: Fuc(a1-2)Gal(b1-4)GlcNAc(b1-2)Man(a1-3)[Fuc(a1-2)Gal(b1-4)GlcNAc(b1-2)Man(a1-6)]Man(b1-4)GlcNAc(b1-4)[Fuc(a1-6)]GlcNAc
# Procedure, shortened: as §1
# [23] = target: Fuc(a1-2)Gal(b1-4)GlcNAc(b1-2)[Fuc(a1-2)Gal(b1-4)GlcNAc(b1-4)]Man(a1-3)[Fuc(a1-2)Gal(b1-4)GlcNAc(b1-2)Man(a1-6)]Man(b1-4)GlcNAc(b1-4)GlcNAc
# Procedure, shortened: as §1
# [24] = target: Fuc(a1-2)Gal(b1-4)GlcNAc(b1-3)Gal(b1-4)GlcNAc
# Procedure, shortened: as §1
binder,measurement,setting,value
B1,glycan array binding signal (z-score),Fuc(a1-2)Gal,-0.23
same,glycan array binding signal (z-score),Fuc(a1-2)Gal(b1-3)GalNAc,-0.218
same,glycan array binding signal (z-score),[1],-0.263
same,glycan array binding signal (z-score),[2],-0.226
same,glycan array binding signal (z-score),[3],-0.165
same,glycan array binding signal (z-score),[4],-0.23
same,glycan array binding signal (z-score),[5],-0.246
same,glycan array binding signal (z-score),Fuc(a1-2)Gal(b1-3)GlcNAc,-0.245
same,glycan array binding signal (z-score),[6],-0.097
same,glycan array binding signal (z-score),[7],-0.183
same,glycan array binding signal (z-score),[8],-0.259
same,glycan array binding signal (z-score),[9],-0.247
same,glycan array binding signal (z-score),[10],-0.223
same,glycan array binding signal (z-score),[11],1.15
same,glycan array binding signal (z-score),[12],-0.271
same,glycan array binding signal (z-score),[13],-0.227
same,glycan array binding signal (z-score),[14],-0.249
same,glycan array binding signal (z-score),[15],-0.083
same,glycan array binding signal (z-score),[16],-0.216
same,glycan array binding signal (z-score),[17],-0.273
same,glycan array binding signal (z-score),[18],-0.275
same,glycan array binding signal (z-score),[19],-0.104
same,glycan array binding signal (z-score),Fuc(a1-2)Gal(b1-4)Glc,-0.211
same,glycan array binding signal (z-score),Fuc(a1-2)Gal(b1-4)Glc6S,-0.187
same,glycan array binding signal (z-score),Fuc(a1-2)Gal(b1-4)GlcNAc,-0.253
same,glycan array binding signal (z-score),[20],-0.192
same,glycan array binding signal (z-score),[21],-0.257
same,glycan array binding signal (z-score),[22],-0.135
same,glycan array binding signal (z-score),[23],-0.162
same,glycan array binding signal (z-score),[24],-0.264

# From the supplement of paper PMC8728848
